Data published in PMC10293653 (International Journal of Biological Macromolecules, 2023).

Target: SARS-CoV-2 PLpro (Severe acute respiratory syndrome coronavirus 2, UniProt P0DTD1)
Assay: PLpro gel-based assay
Format: biochemical
Conditions: 10 μM, 100 μM, and 500 μM; pre-incubation 10 or 20 min

CC#CCn1c(N2CCC[C@@H](N)C2)nc2c1c(=O)n(Cc1nc(C)c3ccccc3n1)c(=O)n2C [Linagliptin, linagliptin]
inhibitory effect on PLpro: unable to see any significant inhibitory effect

N[C@@H](CC(=O)N1CCn2c(nnc2C(F)(F)F)C1)Cc1cc(F)c(F)cc1F [Sitagliptin, sitagliptin]
inhibitory effect on PLpro: unable to see any significant inhibitory effect
